The target of the assay is T1, Flag-JMJD2A (UniProt O75164).
T1 sequence: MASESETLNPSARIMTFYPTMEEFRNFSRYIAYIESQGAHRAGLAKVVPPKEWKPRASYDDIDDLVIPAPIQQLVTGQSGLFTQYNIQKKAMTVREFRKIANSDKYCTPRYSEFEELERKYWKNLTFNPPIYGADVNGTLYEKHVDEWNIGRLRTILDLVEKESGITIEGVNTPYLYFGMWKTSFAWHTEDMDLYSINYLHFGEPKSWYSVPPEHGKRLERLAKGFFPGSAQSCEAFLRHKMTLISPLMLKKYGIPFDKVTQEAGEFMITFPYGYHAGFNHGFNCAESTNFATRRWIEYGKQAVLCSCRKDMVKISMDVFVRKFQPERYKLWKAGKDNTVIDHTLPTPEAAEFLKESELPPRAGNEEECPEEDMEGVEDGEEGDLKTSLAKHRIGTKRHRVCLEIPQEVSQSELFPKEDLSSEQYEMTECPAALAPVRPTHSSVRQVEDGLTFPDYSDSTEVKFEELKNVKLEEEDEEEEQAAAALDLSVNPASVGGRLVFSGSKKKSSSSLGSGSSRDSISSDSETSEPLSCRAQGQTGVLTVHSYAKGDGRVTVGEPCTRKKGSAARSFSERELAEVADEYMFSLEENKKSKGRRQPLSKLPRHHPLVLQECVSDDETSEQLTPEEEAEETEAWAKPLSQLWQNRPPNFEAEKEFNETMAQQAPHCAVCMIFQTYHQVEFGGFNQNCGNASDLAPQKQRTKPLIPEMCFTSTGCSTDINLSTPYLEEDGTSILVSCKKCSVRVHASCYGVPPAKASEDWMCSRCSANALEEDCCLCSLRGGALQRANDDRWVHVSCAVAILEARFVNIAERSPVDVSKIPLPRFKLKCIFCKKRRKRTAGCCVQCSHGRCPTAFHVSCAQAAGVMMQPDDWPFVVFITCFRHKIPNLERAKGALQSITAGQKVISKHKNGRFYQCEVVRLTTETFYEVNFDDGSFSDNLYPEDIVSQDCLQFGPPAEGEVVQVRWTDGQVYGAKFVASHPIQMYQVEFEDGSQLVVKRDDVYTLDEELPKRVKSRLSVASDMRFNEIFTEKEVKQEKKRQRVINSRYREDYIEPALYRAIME
Kind of assay: co-IP; 293T cells transiently cotransfected with a Flag-tagged and a 6Myc-tagged protein; cell extracts two days after transfection; immunoprecipitation with anti-Flag antibodies, anti-Myc Western blot.

No constants are given. Whether binding was seen depends on the method and setting. Binding seen in cells or lysates may run through a third protein. Some entries that bind do so weakly or less than the wild type. Tags and fused reporters may be left off the sequences shown.

B1: 6Myc-JMJD1A (protein, UniProt Q9Y4C1 1-1321)
chain: MVLTLGESWPVLVGRRFLSLSAADGSDGSHDSWDVERVAEWPWLSGTIRAVSHTDVTKKDLKVCVEFDGESWRKRRWIEVYSLLRRAFLVEHNLVLAERKSPEISERIVQWPAITYKPLLDKAGLGSITSVRFLGDQQRVFLSKDLLKPIQDVNSLRLSLTDNQIVSKEFQALIVKHLDESHLLKGDKNLVGSEVKIYSLDPSTQWFSATVINGNPASKTLQVNCEEIPALKIVDPSLIHVEVVHDNLVTCGNSARIGAVKRKSSENNGTLVSKQAKSCSEASPSMCPVQSVPTTVFKEILLGCTAATPPSKDPRQQSTPQAANSPPNLGAKIPQGCHKQSLPEEISSCLNTKSEALRTKPDVCKAGLLSKSSQIGTGDLKILTEPKGSCTQPKTNTDQENRLESVPQALTGLPKECLPTKASSKAELEIANPPELQKHLEHAPSPSDVSNAPEVKAGVNSDSPNNCSGKKVEPSALACRSQNLKESSVKVDNESCCSRSNNKIQNAPSRKSVLTDPAKLKKLQQSGEAFVQDDSCVNIVAQLPKCRECRLDSLRKDKEQQKDSPVFCRFFHFRRLQFNKHGVLRVEGFLTPNKYDNEAIGLWLPLTKNVVGIDLDTAKYILANIGDHFCQMVISEKEAMSTIEPHRQVAWKRAVKGVREMCDVCDTTIFNLHWVCPRCGFGVCVDCYRMKRKNCQQGAAYKTFSWLKCVKSQIHEPENLMPTQIIPGKALYDVGDIVHSVRAKWGIKANCPCSNRQFKLFSKPASKEDLKQTSLAGEKPTLGAVLQQNPSVLEPAAVGGEAASKPAGSMKPACPASTSPLNWLADLTSGNVNKENKEKQPTMPILKNEIKCLPPLPPLSKSSTVLHTFNSTILTPVSNNNSGFLRNLLNSSTGKTENGLKNTPKILDDIFASLVQNKTTSDLSKRPQGLTIKPSILGFDTPHYWLCDNRLLCLQDPNNKSNWNVFRECWKQGQPVMVSGVHHKLNSELWKPESFRKEFGEQEVDLVNCRTNEIITGATVGDFWDGFEDVPNRLKNEKEPMVLKLKDWPPGEDFRDMMPSRFDDLMANIPLPEYTRRDGKLNLASRLPNYFVRPDLGPKMYNAYGLITPEDRKYGTTNLHLDVSDAANVMVYVGIPKGQCEQEEEVLKTIQDGDSDELTIKRFIEGKEKPGALWHIYAAKDTEKIREFLKKVSEEQGQENPADHDPIHDQSWYLDRSLRKRLHQEYGVQGWAIVQFLGDVVFIPAGAPHQVHNLYSCIKVAEDFVSPEHVKHCFWLTQEFRYLSQTHTNHEDKLQVKNVIYHAVKDAVAMLKASESSFGKP
As for B1, the binding result is listed as “binds”.

The record behind these values is PMC9986587.
